PubChem BioAssay AID504339 (National Center for Advancing Translational Sciences (NCATS), 2011)
The campaign covered roughly 390,000 compounds. About 17,000 (4.4%) were called active. Inconclusive results, whose numbers are uncertain, are shown with a selection of clear calls. The call rests on the fitted dose curve; in most records, active means well fitted inhibition curve with a large enough effect; inconclusive means small, poorly fitted or top-dose-only effect; inactive means no such curve, though single readings can be large or run the other way. Potencies beside an inconclusive call are fits to weak or partial responses and may not hold up.

Target: Lysine-specific demethylase 4A (Homo sapiens) (UniProt O75164)
Sequence of UniProt O75164 (O75164 whole entry, looked up, the tested form may be a part): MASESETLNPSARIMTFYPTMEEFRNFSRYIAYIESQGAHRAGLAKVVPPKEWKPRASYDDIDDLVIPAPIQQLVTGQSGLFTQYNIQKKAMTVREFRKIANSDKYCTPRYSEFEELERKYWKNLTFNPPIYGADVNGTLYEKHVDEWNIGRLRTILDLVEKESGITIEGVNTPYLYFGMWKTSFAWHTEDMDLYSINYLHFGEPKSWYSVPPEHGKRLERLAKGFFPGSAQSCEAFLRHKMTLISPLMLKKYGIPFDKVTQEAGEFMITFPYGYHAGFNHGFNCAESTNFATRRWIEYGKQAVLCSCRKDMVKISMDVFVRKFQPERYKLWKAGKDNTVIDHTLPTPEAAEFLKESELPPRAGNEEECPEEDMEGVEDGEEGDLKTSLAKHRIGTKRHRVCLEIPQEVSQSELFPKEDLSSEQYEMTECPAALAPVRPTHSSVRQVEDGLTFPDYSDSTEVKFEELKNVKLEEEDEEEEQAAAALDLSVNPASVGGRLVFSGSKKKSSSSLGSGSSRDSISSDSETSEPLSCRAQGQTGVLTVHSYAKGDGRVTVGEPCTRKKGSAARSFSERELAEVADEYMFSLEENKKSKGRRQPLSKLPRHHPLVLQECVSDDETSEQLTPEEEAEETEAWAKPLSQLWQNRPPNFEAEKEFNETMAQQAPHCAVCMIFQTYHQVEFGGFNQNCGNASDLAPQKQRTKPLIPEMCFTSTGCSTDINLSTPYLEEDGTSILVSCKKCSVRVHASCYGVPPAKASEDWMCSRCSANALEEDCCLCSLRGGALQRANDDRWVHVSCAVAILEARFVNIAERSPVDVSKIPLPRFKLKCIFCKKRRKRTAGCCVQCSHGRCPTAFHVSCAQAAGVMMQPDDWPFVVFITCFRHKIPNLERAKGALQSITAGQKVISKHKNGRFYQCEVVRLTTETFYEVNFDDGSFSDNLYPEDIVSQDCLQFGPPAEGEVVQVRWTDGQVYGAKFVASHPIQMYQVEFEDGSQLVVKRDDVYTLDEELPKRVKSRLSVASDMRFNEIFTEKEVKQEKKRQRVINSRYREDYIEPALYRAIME
Experiment: qHTS Assay for Inhibitors of JMJD2A-Tudor Domain; further: nearly all actives have a fitted effect of over 50% in size
Conditions: AlphaScreen JMJD2A-Tudor / H3K4me3 peptide binding; activity change, negative = inhibition: at 114 µM (top of the series)
On the % scale 0 is the no-effect control and ±100 the full control effect; potency means the concentration at half of the fitted maximal effect; tags describe the fitted curve by direction and shape.

Question: With CCCn1c2ccccc2c2cnn(CC(=O)N3CCCC(C(=O)OCC)C3)c(=O)c21 (configuration not stated) as the molecule, how does the Potency read?
Answer: active: 79.4 µM

Question: Which Potency does the source give for CCOC(=O)C1=C(N)Oc2cc(O)ccc2C1c1cccc([N+](=O)[O-])c1 (configuration not stated) here?
Answer: inconclusive: 44.7 µM [inhibitor, partial curve]

Question: How did the Potency turn out when CCOC(=O)c1c(C)[nH]c(-c2csc(C)n2)c1C was run?
Answer: inconclusive: 22.4 µM [inhibitor, full curve, poor fit]

Question: O=C(CNS(=O)(=O)c1ccc(F)c(Cl)c1)N1CCCCCC1 was tested. Which “activity change, negative = inhibition” value did it give?
Answer: inactive: -5.23%

Question: CN(C)c1ccc(CNCCC(Cc2ccccc2)c2ccco2)cc1 (configuration not stated) was tested. Which Potency did it give?
Answer: active: 20 µM

Question: How did the Potency turn out when COC(=O)CN1C(C(=O)c2ccccc2)=C(OC(=O)c2ccccc2)c2ccccc2S1(=O)=O was run?
Answer: inconclusive: 10 µM [inhibitor, full curve]

Question: COc1ccc(C(=O)NNC(=O)COC(=O)c2sccc2C)cc1 was tested. Which Potency did it give?
Answer: inconclusive: 100 µM [inhibitor, single point]

Question: How did the Potency turn out when CCCN1C(C(=O)c2ccccc2)=C(OC(=O)COc2ccc(C)cc2)c2ccccc2S1(=O)=O was run?
Answer: inconclusive: 22.4 µM [inhibitor, full curve]

Question: With COc1ccc(-c2[nH]ncc2/C=N/NC(=O)c2cccc([N+](=O)[O-])c2)cc1OC as the molecule, how does the Potency read?
Answer: inconclusive: 39.8 µM [inhibitor, partial curve]

Question: CN1CCS/C1=C/C=C1/SC(=S)N(Cc2ccccc2)C1=O was tested. Which Potency did it give?
Answer: inconclusive: 10 µM [inhibitor, partial curve]

Question: Which “activity change, negative = inhibition” value does the source give for COc1ccc(CN(C)C(=O)c2cccc(C(=O)N(C)Cc3ccc(OC)cc3)c2)cc1 here?
Answer: inactive: -8.03%

Question: Which Potency does the source give for COc1ccccc1CNC(=O)/C=C/c1ccc(S(=O)(=O)NCc2ccco2)cc1 here?
Answer: inconclusive: 20 µM [inhibitor, full curve, poor fit]

Question: For O=C(c1ccc(S(=O)(=O)c2ccc(F)cc2)c([N+](=O)[O-])c1)N1CCCCCC1, which Potency is on record?
Answer: inconclusive: 50.1 µM [inhibitor, partial curve]

Question: Which Potency does the source give for Cc1ccc(-n2ncc(C(=O)NCCN3CCC(Cc4ccccc4)CC3)c2C2CCN(C(=O)OC(C)(C)C)CC2)cc1 here?
Answer: inconclusive: 56.2 µM [inhibitor, partial curve]

Question: CN(N=Nc1cccc([N+](=O)[O-])c1)c1ccccc1 was tested. Which Potency did it give?
Answer: inconclusive: 50.1 µM [inhibitor, partial curve]

Question: How did the Potency turn out when COc1ccc(/C=C2\SC(=Nc3ccccc3OC)NC2=O)cc1 was run?
Answer: inconclusive: 17.8 µM [inhibitor, full curve, poor fit]

Question: For CCOc1ccc(NC2c3ccccc3C(=O)N2Cc2ccc3c(c2)OCO3)cc1 (configuration not stated), which Potency is on record?
Answer: active: 44.7 µM

Question: For COCC(C)n1c(C)cc(C(=O)COC(=O)c2cc(=O)[nH]c3ccccc23)c1C (configuration not stated), which Potency is on record?
Answer: inconclusive: 56.2 µM [inhibitor, partial curve]

Question: Cc1cc(=O)c(C(=O)O)cn1-c1ccc(C(C)C)cc1 was tested. Which “activity change, negative = inhibition” value did it give?
Answer: inactive: 3.47%

Question: With CCCCCCCNC(=O)C1(CC2CC(c3ccccc3)=NO2)CCN(C(=O)c2ccccc2)CC1 (configuration not stated) as the molecule, how does the Potency read?
Answer: inconclusive: 44.7 µM [inhibitor, partial curve]

Question: For Fc1ccc(-c2nc(-c3cccs3)[nH]c2-c2ccc(F)cc2)cc1, which Potency is on record?
Answer: inconclusive: 25.1 µM [inhibitor, full curve, poor fit]

Question: With O=C(CCNS(=O)(=O)c1ccc2c(c1)CCN2C(=O)C1CC1)Nc1ccc(OC(F)(F)F)cc1 as the molecule, how does the Potency read?
Answer: inconclusive: 3.98 µM [inhibitor, single point]

Question: For O=C(C1CCCN(Cc2ccccc2F)C1)N1CCCCC1 (configuration not stated), which Potency is on record?
Answer: active: 3.98 µM

Question: With O=C(NCCN1CCOCC1)/C(=C/c1ccccc1)NC(=O)c1ccccc1 as the molecule, how does the Potency read?
Answer: inconclusive: 79.4 µM [inhibitor, single point]

Question: Which Potency does the source give for COc1ccc(NCc2ccc([N+](=O)[O-])s2)cc1 here?
Answer: active: 56.2 µM

Question: Which Potency does the source give for Cc1cc2cc(C(c3nnnn3Cc3ccccc3)N3CCc4ccccc43)c(=O)[nH]c2cc1C (configuration not stated) here?
Answer: inconclusive: 56.2 µM [inhibitor, partial curve]

Question: CC(=O)c1ccc2c3c(ccc(O)c13)CC2 was tested. Which Potency did it give?
Answer: active: 44.7 µM

Question: CN(C)CCNc1ccc(CO)c2oc3ccc(O)cc3c(=O)c12 was tested. Which Potency did it give?
Answer: inconclusive: 56.2 µM [inhibitor, partial curve]

Question: For O=C(CCN1C(=O)/C(=C\c2cccc(Br)c2)SC1=S)NCCCN1CCOCC1, which Potency is on record?
Answer: inconclusive: 56.2 µM [inhibitor, partial curve]

Question: Which Potency does the source give for C#CCOCCOCCOCCNc1nc(N2CCN(C(=O)C(Cc3cc4ccccc4[nH]3)n3cc(C(N)Cc4ccc(O)cc4)nn3)CC2)nc(N2CCN(C(=O)C(Cc3cc4ccccc4[nH]3)n3cc(C(N)Cc4ccc(O)cc4)nn3)CC2)n1 (configuration not stated) here?
Answer: active: 8.91 µM

Question: Which Potency does the source give for O=C(O)c1ccc(NN=CC2=C(N3CCOCC3)/C(=C/c3ccccc3)CC2)cc1 here?
Answer: inconclusive: 50.1 µM [inhibitor, partial curve]

Question: How did the “activity change, negative = inhibition” value turn out when Cc1onc(-c2ccccc2Cl)c1C(=O)N(C)CC(=O)Nc1ccc(F)c(F)c1F was run?
Answer: inactive: -13.1%

Question: For CS(=O)(=O)N1CCC(Oc2cccc(C(=O)NCCCC3CCCC3)c2)CC1, which “activity change, negative = inhibition” value is on record?
Answer: inactive: -14.1%

Question: For Cc1cccc(N2CCN(CCCNc3ncnc4onc(-c5ccc(F)cc5)c34)CC2C)c1 (configuration not stated), which Potency is on record?
Answer: inconclusive: 56.2 µM [inhibitor, partial curve]

Question: For CC[N+](C)(CC)CCC(c1ccccc1)C1CCCCC1 (configuration not stated), which Potency is on record?
Answer: inconclusive: 39.8 µM [inhibitor, single point]

Question: How did the “activity change, negative = inhibition” value turn out when COc1ccc(-c2nnn(Cc3ccccc3F)n2)cc1 was run?
Answer: inactive: 146%

Question: Which Potency does the source give for COc1ccc(C2c3ccc4ccccc4c3Oc3ncn(CCO)c(=N)c32)cc1OC (configuration not stated) here?
Answer: inconclusive: 89.1 µM [inhibitor, partial curve]

Question: How did the “activity change, negative = inhibition” value turn out when O=S(=O)(NC1CCCCCCC1)c1ccccc1F was run?
Answer: inactive: 3.45%

Question: With COc1ccc(NC(=O)CNC(=O)Cn2ccc3ccccc3c2=O)cc1OC as the molecule, how does the “activity change, negative = inhibition” value read?
Answer: inactive: 4.44%

Question: Which Potency does the source give for CCCCOc1cccc(C2c3c(-c4cc(C)ccc4O)n[nH]c3C(=O)N2CCOC)c1 (configuration not stated) here?
Answer: inconclusive: 39.8 µM [inhibitor, partial curve]

Question: With O=[N+]([O-])c1ccccc1/C=N/Nc1nc(N2CCCC2)nc(N2CCCC2)n1 as the molecule, how does the “activity change, negative = inhibition” value read?
Answer: inactive: -33.3%

Question: How did the Potency turn out when COc1ccc(-c2c(C)nc(N)nc2-c2ccc(OC)cc2O)cc1 was run?
Answer: inconclusive: 56.2 µM [inhibitor, partial curve]
